Assay results: the supplement of paper PMC6657886
MIC of clinical N. gonorrhoeae isolates (2015-2017) by agar dilution on GC agar with 1% IsoVitaleX (ranges not stated); higher = less susceptible. No active / inactive call per row; the paper counts benzylpenicillin above 1 and ceftriaxone above 0.125 mg/L as resistant (EUCAST). The method is stated for benzylpenicillin and ceftriaxone and assumed for the other drugs. '<=' is inferred from pile-ups at the end values. Isolates are numbered anew.

Experiments:
Assay in all cases: Agar dilution on enriched GC agar; resistance determinants by microarray.
azithromycin = compound: CC[C@H]1OC(=O)[C@H](C)[C@@H](O[C@H]2C[C@@](C)(OC)[C@@H](O)[C@H](C)O2)[C@H](C)[C@@H](O[C@@H]2O[C@H](C)C[C@H](N(C)C)[C@H]2O)[C@](C)(O)C[C@@H](C)CN(C)[C@H](C)[C@@H](O)[C@]1(C)O [azithromycin]
benzylpenicillin = compound: CC1(C)S[C@@H]2[C@H](NC(=O)Cc3ccccc3)C(=O)N2[C@H]1C(=O)O [benzylpenicillin]
spectinomycin = compound: CN[C@@H]1[C@H](O)[C@H](NC)[C@H]2O[C@@]3(O)C(=O)C[C@@H](C)O[C@H]3O[C@@H]2[C@H]1O [spectinomycin]
ceftriaxone = compound: CO/N=C(\C(=O)N[C@@H]1C(=O)N2C(C(=O)O)=C(CSc3nc(=O)c(O)nn3C)CS[C@H]12)c1csc(N)n1 [ceftriaxone]
tetracycline = compound: CN(C)[C@@H]1C(O)=C(C(N)=O)C(=O)[C@@]2(O)C(O)=C3C(=O)c4c(O)cccc4[C@@](C)(O)[C@H]3C[C@@H]12 [tetracycline]

Neisseria gonorrhoeae isolate 275 (blaTEM plasmid: no, gyrA: wild type, mtrR promoter: wild type, parC: wild type, penA: wild type, ponA: wild type, porB: wild type, rpsJ: wild type, tetM plasmid: yes)
MIC (azithromycin): 0.06 µg/mL | MIC (benzylpenicillin): ≤ 0.015 µg/mL | MIC (spectinomycin): 16 µg/mL | MIC (ceftriaxone): ≤ 0.002 µg/mL | MIC (tetracycline): 32 µg/mL

Neisseria gonorrhoeae isolate 162 (blaTEM plasmid: no, gyrA: wild type, mtrR promoter: -35delA, parC: wild type, penA: ins345Asp, ponA: wild type, porB: wild type, rpsJ: wild type, tetM plasmid: no)
MIC (azithromycin): 0.12 µg/mL | MIC (benzylpenicillin): 0.03 µg/mL | MIC (spectinomycin): 16 µg/mL | MIC (ceftriaxone): ≤ 0.002 µg/mL | MIC (tetracycline): 0.25 µg/mL

Neisseria gonorrhoeae isolate 428 (blaTEM plasmid: no, gyrA: Thr91, Gly95, mtrR promoter: wild type, parC: wild type, penA: ins345Asp, ponA: wild type, porB: wild type, rpsJ: wild type, tetM plasmid: no)
MIC (azithromycin): 0.03 µg/mL | MIC (benzylpenicillin): 0.12 µg/mL | MIC (spectinomycin): 32 µg/mL | MIC (ceftriaxone): ≤ 0.002 µg/mL | MIC (tetracycline): 0.5 µg/mL

Neisseria gonorrhoeae isolate 188 (blaTEM plasmid: no, gyrA: Phe91, Gly95, mtrR promoter: wild type, parC: Arg87, Glu91, penA: ins345Asp, ponA: wild type, porB: wild type, rpsJ: Met57, tetM plasmid: no)
MIC (azithromycin): 0.015 µg/mL | MIC (benzylpenicillin): 0.25 µg/mL | MIC (spectinomycin): 32 µg/mL | MIC (ceftriaxone): ≤ 0.002 µg/mL | MIC (tetracycline): 0.5 µg/mL

Neisseria gonorrhoeae isolate 111 (blaTEM plasmid: no, gyrA: wild type, mtrR promoter: wild type, parC: wild type, penA: ins345Asp, ponA: wild type, porB: wild type, rpsJ: wild type, tetM plasmid: no)
MIC (azithromycin): 0.015 µg/mL | MIC (benzylpenicillin): 0.06 µg/mL | MIC (spectinomycin): 32 µg/mL | MIC (ceftriaxone): 0.004 µg/mL | MIC (tetracycline): 0.5 µg/mL

Neisseria gonorrhoeae isolate 58 (blaTEM plasmid: no, gyrA: wild type, mtrR promoter: wild type, parC: wild type, penA: ins345Asp, ponA: wild type, porB: wild type, rpsJ: wild type, tetM plasmid: no)
MIC (azithromycin): 0.5 µg/mL | MIC (benzylpenicillin): ≤ 0.015 µg/mL | MIC (spectinomycin): 32 µg/mL | MIC (ceftriaxone): 0.008 µg/mL | MIC (tetracycline): 0.12 µg/mL

Neisseria gonorrhoeae isolate 170 (blaTEM plasmid: no, gyrA: Phe91, Asn95, mtrR promoter: -35delA, parC: Arg87, Glu91, penA: ins345Asp, ponA: wild type, porB: wild type, rpsJ: Met57, tetM plasmid: no)
MIC (azithromycin): 0.5 µg/mL | MIC (benzylpenicillin): 2 µg/mL | MIC (spectinomycin): 32 µg/mL | MIC (ceftriaxone): 0.004 µg/mL | MIC (tetracycline): 1 µg/mL

Neisseria gonorrhoeae isolate 4 (blaTEM plasmid: no, gyrA: wild type, mtrR promoter: wild type, parC: wild type, penA: ins345Asp, ponA: Pro421, porB: wild type, rpsJ: Met57, tetM plasmid: no)
MIC (azithromycin): 0.06 µg/mL | MIC (benzylpenicillin): 0.03 µg/mL | MIC (spectinomycin): 4 µg/mL | MIC (ceftriaxone): ≤ 0.002 µg/mL | MIC (tetracycline): 0.12 µg/mL

Neisseria gonorrhoeae isolate 181 (blaTEM plasmid: no, gyrA: Phe91, Asn 95, mtrR promoter: wild type, parC: Arg 87, Glu91, penA: ins345Asp, ponA: Pro421, porB: wild type, rpsJ: Met57, tetM plasmid: no)
MIC (azithromycin): 0.06 µg/mL | MIC (benzylpenicillin): 0.25 µg/mL | MIC (spectinomycin): 32 µg/mL | MIC (ceftriaxone): 0.004 µg/mL | MIC (tetracycline): 1 µg/mL

Neisseria gonorrhoeae isolate 52 (blaTEM plasmid: yes, gyrA: Phe91, Asn95, mtrR promoter: wild type, parC: Asn87, Gly91, penA: wild type, ponA: Pro421, porB: wild type, rpsJ: Met57, tetM plasmid: yes)
MIC (azithromycin): 0.25 µg/mL | MIC (benzylpenicillin): ≥ 32 µg/mL | MIC (spectinomycin): 32 µg/mL | MIC (ceftriaxone): 0.06 µg/mL | MIC (tetracycline): 64 µg/mL

Neisseria gonorrhoeae isolate 262 (blaTEM plasmid: no, gyrA: wild type, mtrR promoter: wild type, parC: wild type, penA: ins345Asp, ponA: wild type, porB: wild type, rpsJ: wild type, tetM plasmid: no)
MIC (azithromycin): 0.03 µg/mL | MIC (benzylpenicillin): 0.12 µg/mL | MIC (spectinomycin): 16 µg/mL | MIC (ceftriaxone): ≤ 0.002 µg/mL | MIC (tetracycline): 0.25 µg/mL

Neisseria gonorrhoeae isolate 286 (blaTEM plasmid: no, gyrA: wild type, mtrR promoter: wild type, parC: wild type, penA: ins345Asp, ponA: wild type, porB: wild type, rpsJ: Met57, tetM plasmid: no)
MIC (azithromycin): 0.5 µg/mL | MIC (benzylpenicillin): 0.12 µg/mL | MIC (spectinomycin): 32 µg/mL | MIC (ceftriaxone): ≤ 0.002 µg/mL | MIC (tetracycline): 2 µg/mL

Neisseria gonorrhoeae isolate 241 (blaTEM plasmid: no, gyrA: Phe91, Asn95, mtrR promoter: -35delA, parC: Arg87, Glu91, penA: ins345Asp, ponA: Pro421, porB: Thr 120, Asn 121, rpsJ: Met57, tetM plasmid: no)
MIC (azithromycin): 0.25 µg/mL | MIC (benzylpenicillin): 0.5 µg/mL | MIC (spectinomycin): 8 µg/mL | MIC (ceftriaxone): 0.008 µg/mL | MIC (tetracycline): 0.5 µg/mL

Neisseria gonorrhoeae isolate 504 (blaTEM plasmid: no, gyrA: Phe91, Asn95, mtrR promoter: wild type, parC: Arg87, Glu91, penA: ins345Asp, ponA: Pro421, porB: wild type, rpsJ: Met57, tetM plasmid: no)
MIC (azithromycin): 0.06 µg/mL | MIC (benzylpenicillin): 0.12 µg/mL | MIC (spectinomycin): 16 µg/mL | MIC (ceftriaxone): 0.004 µg/mL | MIC (tetracycline): 0.5 µg/mL

Neisseria gonorrhoeae isolate 43 (blaTEM plasmid: no, gyrA: wild type, mtrR promoter: wild type, parC: wild type, penA: ins345Asp, ponA: wild type, porB: wild type, rpsJ: wild type, tetM plasmid: no)
MIC (azithromycin): 0.06 µg/mL | MIC (benzylpenicillin): 0.03 µg/mL | MIC (spectinomycin): 16 µg/mL | MIC (ceftriaxone): 0.004 µg/mL | MIC (tetracycline): 1 µg/mL

Neisseria gonorrhoeae isolate 229 (blaTEM plasmid: no, gyrA: wild type, mtrR promoter: wild type, parC: wild type, penA: wild type, ponA: wild type, porB: wild type, rpsJ: wild type, tetM plasmid: no)
MIC (azithromycin): 0.06 µg/mL | MIC (benzylpenicillin): ≤ 0.015 µg/mL | MIC (spectinomycin): 16 µg/mL | MIC (ceftriaxone): ≤ 0.002 µg/mL | MIC (tetracycline): 0.12 µg/mL

Neisseria gonorrhoeae isolate 288 (blaTEM plasmid: no, gyrA: Phe91, Gly95, mtrR promoter: -35delA, parC: Arg87, Gly91, penA: ins345Asp, ponA: Pro421, porB: Asp120, Ala121, rpsJ: Met57, tetM plasmid: no)
MIC (azithromycin): 0.5 µg/mL | MIC (benzylpenicillin): 0.5 µg/mL | MIC (spectinomycin): 16 µg/mL | MIC (ceftriaxone): 0.015 µg/mL | MIC (tetracycline): 0.5 µg/mL

Neisseria gonorrhoeae isolate 254 (blaTEM plasmid: no, gyrA: Phe91, Gly95, mtrR promoter: wild type, parC: Arg87, Glu91, penA: ins345Asp, ponA: Pro421, porB: Asp120, Ala121, rpsJ: Met57, tetM plasmid: no)
MIC (azithromycin): 0.008 µg/mL | MIC (benzylpenicillin): 0.25 µg/mL | MIC (spectinomycin): 32 µg/mL | MIC (ceftriaxone): 0.004 µg/mL | MIC (tetracycline): 0.5 µg/mL

Neisseria gonorrhoeae isolate 46 (blaTEM plasmid: no, gyrA: Phe91, Asn95, mtrR promoter: -35delA, parC: wild type, penA: ins345Asp, ponA: Pro421, porB: Lys 120, Gly121, rpsJ: Met57, tetM plasmid: no)
MIC (azithromycin): 0.25 µg/mL | MIC (benzylpenicillin): 0.5 µg/mL | MIC (spectinomycin): 8 µg/mL | MIC (ceftriaxone): 0.015 µg/mL | MIC (tetracycline): 4 µg/mL

Neisseria gonorrhoeae isolate 71 (blaTEM plasmid: no, gyrA: Phe91, Gly95, mtrR promoter: wild type, parC: Arg87, Glu91, penA: ins345Asp, ponA: Pro421, porB: Asp120, Ala121, rpsJ: Met57, tetM plasmid: no)
MIC (azithromycin): 0.015 µg/mL | MIC (benzylpenicillin): 0.5 µg/mL | MIC (spectinomycin): 32 µg/mL | MIC (ceftriaxone): ≤ 0.002 µg/mL | MIC (tetracycline): 0.5 µg/mL

Neisseria gonorrhoeae isolate 476 (blaTEM plasmid: no, gyrA: Phe91, Gly95, mtrR promoter: wild type, parC: Arg87, Glu91, penA: ins345Asp, ponA: wild type, porB: Asp120, Ala121, rpsJ: Met57, tetM plasmid: no)
MIC (azithromycin): 0.06 µg/mL | MIC (benzylpenicillin): 0.12 µg/mL | MIC (spectinomycin): 16 µg/mL | MIC (ceftriaxone): ≤ 0.002 µg/mL | MIC (tetracycline): 0.5 µg/mL

Neisseria gonorrhoeae isolate 303 (blaTEM plasmid: no, gyrA: Phe91, Gly95, mtrR promoter: -35delA, parC: Arg87, Glu91, penA: ins345Asp, ponA: Pro421, porB: wild type, rpsJ: Met57, tetM plasmid: no)
MIC (azithromycin): 0.015 µg/mL | MIC (benzylpenicillin): 1 µg/mL | MIC (spectinomycin): 32 µg/mL | MIC (ceftriaxone): 0.008 µg/mL | MIC (tetracycline): 1 µg/mL

Neisseria gonorrhoeae isolate 317 (blaTEM plasmid: no, gyrA: Phe91, Asn 95, mtrR promoter: -35delA, parC: Arg87, Glu91, penA: ins345Asp, ponA: Pro421, porB: wild type, rpsJ: Met57, tetM plasmid: no)
MIC (azithromycin): 0.06 µg/mL | MIC (benzylpenicillin): 0.5 µg/mL | MIC (spectinomycin): 32 µg/mL | MIC (ceftriaxone): ≤ 0.002 µg/mL | MIC (tetracycline): 0.5 µg/mL

Neisseria gonorrhoeae isolate 63 (blaTEM plasmid: no, gyrA: wild type, mtrR promoter: wild type, parC: wild type, penA: wild type, ponA: wild type, porB: wild type, rpsJ: wild type, tetM plasmid: no)
MIC (azithromycin): 0.12 µg/mL | MIC (benzylpenicillin): 0.12 µg/mL | MIC (spectinomycin): 16 µg/mL | MIC (ceftriaxone): ≤ 0.002 µg/mL | MIC (tetracycline): 1 µg/mL

Neisseria gonorrhoeae isolate 426 (blaTEM plasmid: no, gyrA: wild type, mtrR promoter: wild type, parC: wild type, penA: ins345Asp, ponA: wild type, porB: wild type, rpsJ: wild type, tetM plasmid: no)
MIC (azithromycin): 0.015 µg/mL | MIC (benzylpenicillin): 0.06 µg/mL | MIC (spectinomycin): 32 µg/mL | MIC (ceftriaxone): ≤ 0.002 µg/mL | MIC (tetracycline): 0.5 µg/mL
